Results on 58 sequences are retold here after the BET-seq Pho4 binding data (Le et al. 2018).

Some of the results follow. Values were computed here from the reads of four pooled replicates and scatter widely.

For the assay, the target named is T1, Pho4 (S. cerevisiae) (UniProt P07270).
T1 sequence: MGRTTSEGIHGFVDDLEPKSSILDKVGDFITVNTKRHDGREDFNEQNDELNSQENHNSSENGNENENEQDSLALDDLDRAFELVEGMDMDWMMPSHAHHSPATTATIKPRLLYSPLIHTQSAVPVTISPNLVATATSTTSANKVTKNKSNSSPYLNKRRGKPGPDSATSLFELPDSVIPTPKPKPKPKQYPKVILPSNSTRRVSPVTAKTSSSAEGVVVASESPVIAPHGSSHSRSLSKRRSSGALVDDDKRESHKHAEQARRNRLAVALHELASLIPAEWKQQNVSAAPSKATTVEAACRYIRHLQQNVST
Briefly: relative binding free energy (BET-seq); higher = weaker binding. The note with it: reference: library average.
As to TATCTCACGTGGGGGC, the “relative binding free energy” value is 0.2 kcal/mol. Consider TCTCGCACGTGTAGGT, for which the “relative binding free energy” value was -0.08 kcal/mol. Regarding GTGTACACGTGAATGG, the “relative binding free energy” value came out at 0.28 kcal/mol.

Turning to TCGTTCACGTGTATGA, the “relative binding free energy” value is 0.35 kcal/mol. With GGCTTCACGTGGGATT, the “relative binding free energy” value amounted to 0.19 kcal/mol. As for AGATTCACGTGTTTGA, the “relative binding free energy” value amounted to 0.21 kcal/mol. For TTTGTCACGTGAGAAA, the “relative binding free energy” value came to 0.26 kcal/mol. Regarding GGATACACGTGTATTT, the “relative binding free energy” value came to 0.02 kcal/mol. Take ATGGGCACGTGATAGA: the “relative binding free energy” value is -0.02 kcal/mol. For AGCGTCACGTGGAGTT, the “relative binding free energy” value was determined as 0.16 kcal/mol. In the case of GTTGGCACGTGGATAT, the “relative binding free energy” value is -0.04 kcal/mol. With GCGAGCACGTGGTAGG the figure was -0.12 kcal/mol; with AATTGCACGTGGTTTT, -0.04 kcal/mol.

Consider TTTCACACGTGCTGTG, for which the “relative binding free energy” value turned out to be 0.03 kcal/mol. Consider GATGTCACGTGTGGAG, for which the “relative binding free energy” value was determined as 0.09 kcal/mol. With GTTATCACGTGTGGTT, the “relative binding free energy” value is 0.25 kcal/mol. GGCAGCACGTGTGATG: the “relative binding free energy” value came to 0.18 kcal/mol.

As for GTGTCCACGTGGGTTT, the “relative binding free energy” value came out at 0.11 kcal/mol. To ATTCGCACGTGAGGGT belongs -0.07 kcal/mol; to ATGCGCACGTGGGCTT, -0.26 kcal/mol. For the sequence CGTATCACGTGGGGAT, the “relative binding free energy” value was 0.09 kcal/mol. To TTAGACACGTGTGGTT belongs 0.16 kcal/mol; to TCGTGCACGTGTTGTC, -0.03 kcal/mol. With GATTTCACGTGGGTTA, the “relative binding free energy” value was 0.24 kcal/mol. Regarding GGCGTCACGTGTGTAG, the “relative binding free energy” value is -0.01 kcal/mol. Consider AGTTCCACGTGAGGCG, for which the “relative binding free energy” value is 0.4 kcal/mol. Consider AGAGCCACGTGGTAGG, for which the “relative binding free energy” value was -0.25 kcal/mol. GCGTTCACGTGGGAGA: the “relative binding free energy” value amounted to 0.32 kcal/mol. With TGTGACACGTGTAGTA the figure was -0.02 kcal/mol; with AACGGCACGTGGAGTT, 0.02 kcal/mol; with TAGTACACGTGCTTTA, 0 kcal/mol. For GAGGTCACGTGTCTTT, the “relative binding free energy” value worked out at 0.16 kcal/mol. For TTAGTCACGTGTCGAT, the “relative binding free energy” value is 0.09 kcal/mol.

For CTTTTCACGTGGGCAG, the “relative binding free energy” value was determined as 0.27 kcal/mol.

Take GGCAGCACGTGAGAGG: the “relative binding free energy” value stood at 0.24 kcal/mol. As for AATGTCACGTGAGGCT, the “relative binding free energy” value came to 0.19 kcal/mol.

In the case of AGGACCACGTGTAGTG, the “relative binding free energy” value turned out to be 0.06 kcal/mol.

On to GAGGTCACGTGTAAGG, for which the “relative binding free energy” value is 0.23 kcal/mol. Consider TTAAGCACGTGAGGGA, for which the “relative binding free energy” value came out at 0.21 kcal/mol.

With AAGGACACGTGTGTAT, the “relative binding free energy” value worked out at 0.08 kcal/mol. For TAATACACGTGGGTAG, the “relative binding free energy” value is -0.18 kcal/mol. To TTGATCACGTGTCATG belongs 0.1 kcal/mol; to GTGTTCACGTGGCAGA, 0.25 kcal/mol; to GGATTCACGTGGGAAA, 0.2 kcal/mol. On to GTTATCACGTGGAGGG, for which the “relative binding free energy” value was 0.12 kcal/mol.

For TGTGTCACGTGGCGGA, the “relative binding free energy” value was -0.03 kcal/mol. Regarding TCATGCACGTGGGATT, the “relative binding free energy” value was -0.21 kcal/mol. With AGTGGCACGTGTAATA the figure was -0.05 kcal/mol; with CGTTGCACGTGAGGGG, 0.27 kcal/mol. With CGGAGCACGTGAGTTG the figure was 0.12 kcal/mol; with TGGGACACGTGGAGGT, 0.1 kcal/mol; with TGATCCACGTGTTGTG, 0.07 kcal/mol.

With CCATTCACGTGTGGTA, the “relative binding free energy” value came to 0.3 kcal/mol. For TAGTGCACGTGAGATG, the “relative binding free energy” value was found to be 0.19 kcal/mol. Regarding GTAGGCACGTGGGTCG, the “relative binding free energy” value was -0.12 kcal/mol.

Consider ATATTCACGTGATGCT, for which the “relative binding free energy” value amounted to 0.22 kcal/mol.

Regarding TCATTCACGTGAATGT, the “relative binding free energy” value was 0.46 kcal/mol.

Take TCGGACACGTGTATAG: the “relative binding free energy” value was 0.19 kcal/mol.
